# Assay results as given in paper PMC4336329 (PLoS ONE, 2015).
# Screen size: about 310,000 compounds; about 14,000 (4.5%) showed an effect of 50% or more. The effect is printed as a negative number. The list shows a part of the results.
# Target: human ether-à-go-go-related gene (hERG) potassium channel (human, UniProt Q12809)
# Experiment: primary screen, population patch clamp on CHO cells stably expressing hERG
# 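Also: peak tail current of the secondary pulse compared with the same well before compound.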
# human ether-à-go-go-related gene (hERG) potassium channel, sequence (Q12809 whole entry, looked up): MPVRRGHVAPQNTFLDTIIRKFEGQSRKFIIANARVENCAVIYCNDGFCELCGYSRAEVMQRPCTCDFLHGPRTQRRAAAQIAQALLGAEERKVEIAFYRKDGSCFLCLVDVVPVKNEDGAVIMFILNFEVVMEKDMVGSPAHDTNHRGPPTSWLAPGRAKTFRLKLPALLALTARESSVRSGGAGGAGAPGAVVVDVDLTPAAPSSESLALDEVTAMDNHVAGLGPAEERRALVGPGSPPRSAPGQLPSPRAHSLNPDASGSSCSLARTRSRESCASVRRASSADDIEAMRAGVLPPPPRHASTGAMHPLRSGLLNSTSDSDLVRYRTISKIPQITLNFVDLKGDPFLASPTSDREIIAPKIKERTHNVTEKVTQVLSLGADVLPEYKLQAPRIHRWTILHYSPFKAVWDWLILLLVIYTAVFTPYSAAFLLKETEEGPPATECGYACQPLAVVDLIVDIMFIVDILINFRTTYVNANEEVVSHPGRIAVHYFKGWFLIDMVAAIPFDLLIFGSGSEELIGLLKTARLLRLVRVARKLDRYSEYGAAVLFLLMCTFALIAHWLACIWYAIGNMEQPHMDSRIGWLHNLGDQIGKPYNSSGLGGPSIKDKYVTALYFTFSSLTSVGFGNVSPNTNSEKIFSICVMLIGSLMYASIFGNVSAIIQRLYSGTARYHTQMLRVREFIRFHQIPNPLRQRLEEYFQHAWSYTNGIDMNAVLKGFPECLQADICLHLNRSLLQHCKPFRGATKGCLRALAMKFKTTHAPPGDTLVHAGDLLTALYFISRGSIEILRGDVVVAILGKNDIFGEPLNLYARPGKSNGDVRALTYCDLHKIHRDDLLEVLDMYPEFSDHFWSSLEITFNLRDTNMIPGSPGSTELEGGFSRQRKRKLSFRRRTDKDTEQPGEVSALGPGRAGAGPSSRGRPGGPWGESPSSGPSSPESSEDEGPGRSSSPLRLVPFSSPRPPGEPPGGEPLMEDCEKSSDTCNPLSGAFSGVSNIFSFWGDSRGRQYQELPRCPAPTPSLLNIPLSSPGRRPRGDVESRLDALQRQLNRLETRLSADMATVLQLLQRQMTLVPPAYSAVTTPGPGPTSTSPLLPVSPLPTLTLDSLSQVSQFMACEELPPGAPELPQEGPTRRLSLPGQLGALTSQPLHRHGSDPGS
row,Compound,"hERG current change (%, negative = inhibition) at 10uM"
1,CC(C)CNC(=O)C(=O)NNC(=O)c1ccco1,13.2%
2,COc1cc2c(cc1OC)C(C)N(C(=S)Nc1ccccc1)CC2 (centres unmarked),-7.48%
3,O=C(O)CC(NC(=O)c1ccncc1)c1ccccc1 (centres unmarked),21.5%
4,CCn1c(C)c(C)c2cc(C(=O)NCCCN3CCCCCC3)ccc21,-35.5%
5,COc1ccc(-c2cn(-c3cccc(C)c3)c(=O)[nH]2)cc1OC,-29.8%
6,CC(=O)C(c1ccccc1)C(c1ccccc1)C(C)[N+](=O)[O-] (centres unmarked),14.3%
7,Cc1nc(SC(C)C(=O)NCC2CCCO2)c2cc(-c3ccccc3)sc2n1 (centres unmarked),-27%
8,O=C(c1ccccc1Sc1cccc2ccccc12)N1CCOCC1,-22%
9,Cc1ccc(C(=O)Nc2c(C)cc(C)c3cccnc23)cc1,24%
10,O=C(NC1CCCC1)C(c1ccc(O)cc1)N(CC1CCCO1)C(=O)C1COc2ccccc2O1 (centres unmarked),-14.5%
11,COCCCN(Cc1ccco1)C(=O)CSc1nc2ncccc2[nH]1,7.62%
12,Cc1ccc(Nc2nc(N)nc(CN3CCC(C)CC3)n2)c(C)c1,-57.8%
13,CCC(=O)Nc1nc(C)c(-c2csc(Nc3ccccn3)n2)s1,9.84%
14,O=C(COc1cccc(C(F)(F)F)c1)NNC(=O)Cn1c(=O)cnc2ccccc21,-5.83%
15,O=Cc1c(-[n+]2ccccc2)nc([O-])n1-c1ccccc1,2.93%
16,CCC(=O)NC(c1cc(Cl)c2ccccc2c1O)C1CC1 (centres unmarked),14.5%
17,CCOC(=O)C1CCN(C(=O)c2ccc3c(c2)OCO3)CC1,-5.29%
18,COc1cccc(NC(=O)c2ccc3c(SCC(=O)O)c4c(nc3c2)CCCC4)c1,7.68%
19,CC1CCCN(CCC(=O)Nc2ccccc2)C1.Cl (centres unmarked),12.2%
20,COc1ccc(-c2csc(-n3ncc(-c4ccccn4)c3N)n2)cc1,20.2%

row,Compound,"hERG current change (%, negative = inhibition) at 10uM"
1,CCCCC(CC)C(=O)Nc1ccc(S(=O)(=O)N2CCCC2)cc1 (centres unmarked),-6.33%
2,O=C(CC(c1ccccc1)(c1ccccc1)c1ccccc1)N[C@@H](Cc1ccc(O)cc1)C(=O)O,-12.5%
3,Cc1nnc(N/N=C/c2ccccc2C(F)(F)F)n1N.Cl,11.2%
4,FC(F)(F)c1cccc(NC(=S)N2CCN(c3cccc(C(F)(F)F)c3)CC2)c1,16.6%
5,COc1ccc(C2/C(=C(/O)c3ccccc3)C(=O)C(=O)N2CO)cc1 (centres unmarked),1.55%
6,O=C(CSC(=S)N1CCOCC1)Nc1nccs1,-1.54%
7,CCOC(=O)C1CCN(C(=O)c2cccc(NC3=NC4CS(=O)(=O)CC4S3)c2)CC1 (centres unmarked),7.41%
8,CN(C)CCCn1c(SCc2ccc(Cl)cc2)nnc1-c1ccncc1.O=C(O)C(=O)O,-15.5%
9,O=C(CCC1COc2ccccc2O1)NCc1ccco1 (centres unmarked),0.393%
10,O=C(CN1C(=O)S/C(=C\c2ccc(C(=O)O)cc2)C1=O)Nc1ccccc1,19%
11,Cc1cc(=O)[nH]c(SCC(=O)Nc2c(C)n(C)n(-c3ccccc3)c2=O)c1C#N,19.3%
12,CC1(C)Cc2c(sc(NC(=O)c3ccc4ncsc4c3)c2C(N)=O)C(C)(C)N1,-30.5%
13,CC(C)n1nnnc1-c1cc(Cl)cc(Cl)c1,-11.1%
14,CCCCN(C(=O)CNC(=O)c1cccs1)C(C(=O)NC1CCCC1)c1ccncc1 (centres unmarked),4.35%
15,Nc1nc(Cl)c(C=O)c(N2CCCCC2)n1,1.3%
16,N#Cc1cc(C(=O)c2cc(Br)ccc2O)cn(C2CC2)c1=O,-27.5%
17,COc1cc(NC(=O)c2csc(N)n2)cc(C(=O)Nc2cccc(C(F)(F)F)c2)c1,-4.7%
18,Cc1ccc(-c2nnc(N3CCC(C)CC3)c3ccccc23)cc1,3.1%
19,Cl.NC(CCC(=O)O)C12CC3CC(CC(C3)C1)C2 (centres unmarked),14.2%
20,Cc1ccc(OCC(O)CN2CCN(c3ccccn3)CC2)c(C)c1.Cl (centres unmarked),-60.5%

row,Compound,"hERG current change (%, negative = inhibition) at 10uM"
1,O=C(CC(C(=O)O)c1cccc(Cl)c1)c1ccccc1 (centres unmarked),14.2%
2,CO/N=C(\Cn1ncc(N2CCCC2)c(Br)c1=O)c1ccc(Cl)cc1,-57.5%
3,CCC(C)[C@H](NC(=O)[C@@H]1CSC2c3ccccc3C(=O)N21)C(=O)NCC1CCCO1 (some centres unmarked),21.5%
4,CCOC(=O)C1CCCN(C(=S)Nc2ccc(C)cc2C)C1 (centres unmarked),7.62%
5,Cc1ccc(NC(=S)N2CCN(S(=O)(=O)c3ccccc3)CC2)cc1,6.89%
6,Cc1cc(S(=O)(=O)N2CCCC2)ccc1OCC(=O)N1CCOCC1,3.1%
7,CCCCCCC#Cc1ccc2c(c1)COc1c3ccccc3nn1-2,16.5%
8,CCN1CCCC1CNC1=NCCCCC1 (centres unmarked),7.64%
9,COc1ccc(NC(=O)CN(C)CC(=O)Nc2ccccc2SC)cc1,-1.63%
10,O=C(CCN1C(=O)c2ccncc2C1=O)NCc1ccc(Cl)cc1,-51.9%
11,Cn1ccsc1=NC(=O)c1ccc(CS(C)(=O)=O)cc1,22%
12,CCOC(=O)/C(C#N)=C\c1ccc(CC)s1,-3.59%
13,N#C/C(=N\Nc1ccccc1F)C(=N)N1CCCCC1,-12.2%
14,COc1ccc(C(=O)C[n+]2cccc3cc(OC)ccc32)cc1.[Br-],6.04%
15,Nc1cccc(C2=Nc3cccc4cccc(c34)N2)c1,15.6%
16,COc1cccc(OC(=O)N2CCOCC2)c1,8.3%
17,COC1(OC)N=C(N)C2(C#N)C(c3ccc(C)cc3)C12C#N (centres unmarked),10.1%
18,Cc1cc(C)cc(N2C(=O)CSC2c2ccccn2)c1 (centres unmarked),7.31%
19,O=C(CCCCCn1c(SCC(=O)c2ccccc2)nc2ccccc2c1=O)NCc1ccco1,10.8%
